Not every detail of the peptide structures is certain; ends, links or a residue may be inferred. No end group written: not given here.
Assays:
[1] = tested on: E. coli ML-35p; test: Kinetics of permeabilization of the outer bacteria membrane (nitrocefin); format: cell-based, Escherichia coli
[2] = tested on: E. coli ML-35p; test: Kinetics of permeabilization of the inner bacteria membrane (ONPG); format: cell-based, Escherichia coli

Sequence | Outer membrane, time to 50% of final signal ([1]; 4 μM peptide) [min] | Outer membrane, time to 50% of final signal ([1]; 8 μM peptide) [min] | Outer membrane, time to 50% of final signal ([1]; 16 μM peptide) [min] | Outer membrane, time to 50% of final signal ([1]; 32 μM peptide) [min] | Inner membrane, time to 50% of final signal ([2]; 4 μM peptide) [min] | Inner membrane, time to 50% of final signal ([2]; 8 μM peptide) [min] | Inner membrane, time to 50% of final signal ([2]; 16 μM peptide) [min] | Inner membrane, time to 50% of final signal ([2]; 32 μM peptide) [min]
RKRKLILILIKRKR [A1] | 26 | 21 | 17 | 16 | >90 | 42 | 40 | 35
RRRFFFFFRRR [S7] | >90 | 14 | 13 | 9 | >90 | 39 | 37 | 34
RRRIIIIIRRR [S1] | 25 | 24 | 22 | 19 | >90 | 63 | 61 | 56
RRRLLLLLRRR [S3] | >90 | 32 | 22 | 15 | >90 | >90 | >90 | 83
RRRVVVVVRRR [S5] | >90 | >90 | >90 | 19 | >90 | >90 | >90 | >90

Reference: US10556926B2, “Synthetic artificial peptides with antimicrobial effect” (priority 2014, dated 2020)
